Assay results taken from the supplement of paper PMC10126150.
Sequences with one replicate were seen in a single cluster, so their values are uncertain.
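Also: ATP exposure 15 min at 22 °C before imaging.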

Each sequence was assayed on ATP (assay: switch fluorescence ratio, 500 uM ATP over buffer (Cy3 cluster intensity, sum of 5 cycles each) (fold (ratio)); higher = stronger signal-on switching upon ATP binding; sequences stand for … in TCGTCGGCAGCGTCAGATGTGTATAAGAGACAGTTTTTTTTTTTTTTTTTTTTTTTTT…TC). Details: aptamer strand: ATP DNA aptamer (quencher-CACCTGGGGGAGTATTGCGGAGGAAGG + anchor), 100 nM annealed; ATP concentration: 500 uM; one replicate.
Procedure, shortened: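 Clusters carrying Cy3-labelled switching strands on a modified Illumina MiSeq flow-cell were annealed to 100 nM quencher-labelled ATP aptamer and imaged in selection buffer. They were imaged again after 15 min with 500 uM ATP at 22 °C, over five buffer/ATP cycles with NaOH stripping and re-annealing in between. For each cluster, the fluorescence ratio is the summed Cy3 intensity of the target cycles divided by that of the buffer cycles, averaged per switch-domain sequence. Clusters outside 100-1000 RFU were left out.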
Sequence GATGACGTAA has a switch fluorescence ratio of 1.12. Sequence GATGACTAGA has a switch fluorescence ratio of 1.02. GATGACTTAC showed a switch fluorescence ratio of 1.23. GATGAGATGC showed a switch fluorescence ratio of 1.01. For GATGAGTAAC, the switch fluorescence ratio was 1.02. Work on GATGATAATA yielded a switch fluorescence ratio of 1.02. For GATGATCTCT, the switch fluorescence ratio was 0.995. Sequence GATGCCATT has a switch fluorescence ratio of 0.982. Work on GATGCGAACG yielded a switch fluorescence ratio of 0.989. GATGCGAAGG gave a switch fluorescence ratio of 0.999. In the case of GATGCGACTA, the switch fluorescence ratio is reported as 1.01. GATGCGCGGA showed a switch fluorescence ratio of 0.947. GATGCGCGGC was tested, and the switch fluorescence ratio was 1.02. Work on GATGCGGATG yielded a switch fluorescence ratio of 0.938. GATGCTATAG was tested, and the switch fluorescence ratio was 1.38. In the case of GATGCTCC, the switch fluorescence ratio is reported as 3.13. In the case of GATGGAATGC, the switch fluorescence ratio is reported as 2.75. GATGGACGGT showed a switch fluorescence ratio of 1.03. GATGGAGGCG was tested, and the switch fluorescence ratio was 0.96. With GATGGAGGGT the switch fluorescence ratio was 1.06. Sequence GATGGCATT has a switch fluorescence ratio of 1.45. Sequence GATGGCGGAC has a switch fluorescence ratio of 1.05. GATGGGATA showed a switch fluorescence ratio of 0.947. For GATGGGCCC, the switch fluorescence ratio was 0.933. Sequence GATGGGTGTG has a switch fluorescence ratio of 0.981. GATGGTAACG showed a switch fluorescence ratio of 0.983. Sequence GATGGTCGA has a switch fluorescence ratio of 0.971. Work on GATGGTTAGG yielded a switch fluorescence ratio of 1.04. In the case of GATGGTTCGG, the switch fluorescence ratio is reported as 1.01. In the case of GATGT, the switch fluorescence ratio is reported as 0.982. GATGTAAAAC gave a switch fluorescence ratio of 1.13. Work on GATGTAGAGA yielded a switch fluorescence ratio of 1. GATGTCAGAT was tested, and the switch fluorescence ratio was 1.03. With GATGTCTAAG the switch fluorescence ratio was 0.998. In the case of GATGTGCCTA, the switch fluorescence ratio is reported as 1.01. For GATGTGCGCG, the switch fluorescence ratio was 1.11. With GATGTGGCTA the switch fluorescence ratio was 0.996. In the case of GATGTTAATT, the switch fluorescence ratio is reported as 1.07. Sequence GATGTTGCCC has a switch fluorescence ratio of 1.01. GATGTTTTCC showed a switch fluorescence ratio of 1.01. Sequence GATTAAAGAT has a switch fluorescence ratio of 0.974. Sequence GATTAATGCA has a switch fluorescence ratio of 0.973. GATTACTTGA showed a switch fluorescence ratio of 1.05. For GATTAGATGG, the switch fluorescence ratio was 0.962. For GATTAGGGAC, the switch fluorescence ratio was 1. In the case of GATTAGTACT, the switch fluorescence ratio is reported as 0.973. GATTATACTG gave a switch fluorescence ratio of 1.08. In the case of GATTATCGTG, the switch fluorescence ratio is reported as 1.02. Sequence GATTATGACT has a switch fluorescence ratio of 1.01. For GATTATTTAT, the switch fluorescence ratio was 0.952. Work on GATTCAGAAA yielded a switch fluorescence ratio of 0.977. Sequence GATTCATAGG has a switch fluorescence ratio of 0.982. With GATTCGAACC the switch fluorescence ratio was 1.01. GATTCGACT gave a switch fluorescence ratio of 0.981. GATTCGGCGG showed a switch fluorescence ratio of 1.01. In the case of GATTCGGTCC, the switch fluorescence ratio is reported as 1.02. GATTCGTAGC was tested, and the switch fluorescence ratio was 1.02. GATTGAACAT was tested, and the switch fluorescence ratio was 0.99. GATTGACCAC gave a switch fluorescence ratio of 1.05. Work on GATTGACGGT yielded a switch fluorescence ratio of 1.04. In the case of GATTGACTCA, the switch fluorescence ratio is reported as 0.985. GATTGAGGAC was tested, and the switch fluorescence ratio was 0.955. Work on GATTGAGGGT yielded a switch fluorescence ratio of 0.994. GATTGATA gave a switch fluorescence ratio of 0.989. Sequence GATTGATCTC has a switch fluorescence ratio of 0.972. Work on GATTGCCAGT yielded a switch fluorescence ratio of 1.04. Work on GATTGCGGCG yielded a switch fluorescence ratio of 0.983. Sequence GATTGGGTGC has a switch fluorescence ratio of 1.02. GATTGTAAAC gave a switch fluorescence ratio of 0.997. Sequence GATTGTCACC has a switch fluorescence ratio of 1.02. Sequence GATTGTTAAG has a switch fluorescence ratio of 1.01. With GATTTAACCA the switch fluorescence ratio was 0.963. GATTTATCCT gave a switch fluorescence ratio of 0.984. In the case of GATTTCAAAA, the switch fluorescence ratio is reported as 0.913. Sequence GATTTCATAT has a switch fluorescence ratio of 1.02. In the case of GATTTGAATG, the switch fluorescence ratio is reported as 0.944. GATTTGTCTA gave a switch fluorescence ratio of 0.952. Sequence GATTTTAGGC has a switch fluorescence ratio of 0.958. Sequence GATTTTGA has a switch fluorescence ratio of 0.946. In the case of GATTTTGCCT, the switch fluorescence ratio is reported as 0.98. GATTTTTA gave a switch fluorescence ratio of 0.944. GCAAAAGCGT was tested, and the switch fluorescence ratio was 0.976. Work on GCAAAATATT yielded a switch fluorescence ratio of 1.04. Sequence GCAAAATCCA has a switch fluorescence ratio of 1.02. For GCAAAATTTT, the switch fluorescence ratio was 0.949. GCAAAG showed a switch fluorescence ratio of 1.02. GCAAAGAGT gave a switch fluorescence ratio of 1.02. GCAAAGATGA gave a switch fluorescence ratio of 1. With GCAAAGCGTT the switch fluorescence ratio was 1.01. GCAAATGAGG showed a switch fluorescence ratio of 0.957. For GCAAATTAAG, the switch fluorescence ratio was 1.04. In the case of GCAACGGTTT, the switch fluorescence ratio is reported as 1. GCAACTAATG was tested, and the switch fluorescence ratio was 0.949. GCAAGACCAA showed a switch fluorescence ratio of 1.13. GCAAGATCTA was tested, and the switch fluorescence ratio was 1.01. Sequence GCAAGGAGAT has a switch fluorescence ratio of 0.982. GCAAGGCA was tested, and the switch fluorescence ratio was 2.01. With GCAAGGCTCG the switch fluorescence ratio was 1.51. Work on GCAAGGTTGG yielded a switch fluorescence ratio of 0.978. With GCAAGTATAA the switch fluorescence ratio was 1.03. GCAATACAT was tested, and the switch fluorescence ratio was 5.94. In the case of GCAATATTAA, the switch fluorescence ratio is reported as 1.17. With GCAATCAGGT the switch fluorescence ratio was 1.16. With GCAATCTTAA the switch fluorescence ratio was 1.1. GCAATGATTC gave a switch fluorescence ratio of 1.32. With GCAATTAAC the switch fluorescence ratio was 4.14. With GCAATTCTAA the switch fluorescence ratio was 1.13. GCACACTGTT gave a switch fluorescence ratio of 1.01. GCACATAGAT gave a switch fluorescence ratio of 1. With GCACATCTTT the switch fluorescence ratio was 1. Work on GCACATGGTA yielded a switch fluorescence ratio of 1.01. GCACCAATA was tested, and the switch fluorescence ratio was 1.01. Work on GCACCCCCTA yielded a switch fluorescence ratio of 1.31. For GCACCTCCGA, the switch fluorescence ratio was 2.38. GCACCTCGCC gave a switch fluorescence ratio of 1.09. In the case of GCACGATCC, the switch fluorescence ratio is reported as 1.08. GCACGATGTT was tested, and the switch fluorescence ratio was 0.987. GCACGATTAT was tested, and the switch fluorescence ratio was 1.05. For GCACGCCAGG, the switch fluorescence ratio was 1.98. GCACGCCTAA was tested, and the switch fluorescence ratio was 0.993. Sequence GCACGCCTTT has a switch fluorescence ratio of 1.06. GCACGCTTGC showed a switch fluorescence ratio of 1.1. GCACGGGATC was tested, and the switch fluorescence ratio was 1.06. Sequence GCACGTGCCG has a switch fluorescence ratio of 0.928. For GCACGTGTCC, the switch fluorescence ratio was 0.99. GCACGTTGCA was tested, and the switch fluorescence ratio was 0.962. For GCACTATCAG, the switch fluorescence ratio was 0.962. Work on GCACTATTAA yielded a switch fluorescence ratio of 1. In the case of GCACTCGGAG, the switch fluorescence ratio is reported as 0.957. Sequence GCACTGTATA has a switch fluorescence ratio of 1.2. GCACTTCCAA showed a switch fluorescence ratio of 1.14. Work on GCACTTGCCT yielded a switch fluorescence ratio of 1.04. GCAGAACGAG showed a switch fluorescence ratio of 1.14. Work on GCAGAGCCTA yielded a switch fluorescence ratio of 1.04. GCAGAGTGAG gave a switch fluorescence ratio of 0.968. For GCAGATAGTC, the switch fluorescence ratio was 1.16. GCAGATATGA gave a switch fluorescence ratio of 1.07. For GCAGATGTTA, the switch fluorescence ratio was 1.04. GCAGATTTG was tested, and the switch fluorescence ratio was 1.08. In the case of GCAGCCAGGT, the switch fluorescence ratio is reported as 1.57. With GCAGCCGGTG the switch fluorescence ratio was 1.03. With GCAGCGCAGA the switch fluorescence ratio was 0.972. GCAGCGCCAA gave a switch fluorescence ratio of 1.04. GCAGGAATCA gave a switch fluorescence ratio of 1.05. GCAGGCAGTC gave a switch fluorescence ratio of 0.975. Work on GCAGGGTTGC yielded a switch fluorescence ratio of 1.02. GCAGGTTCCC gave a switch fluorescence ratio of 1.07. GCAGTAACTA gave a switch fluorescence ratio of 1.04. GCAGTAGAAT gave a switch fluorescence ratio of 0.965. GCAGTCCTCG was tested, and the switch fluorescence ratio was 1.02. Sequence GCAGTCTAAT has a switch fluorescence ratio of 0.99. In the case of GCAGTCTGTA, the switch fluorescence ratio is reported as 0.946. In the case of GCAGTGTTGA, the switch fluorescence ratio is reported as 0.996. GCAGTTCTGA showed a switch fluorescence ratio of 0.988.
